Data on 52 compounds can be found in PubChem BioAssay AID651567 (National Center for Advancing Translational Sciences (NCATS), 2012).

The campaign covered roughly 1,200 compounds. About 10 (0.8%) were called active. Roughly 4% stayed inconclusive and do not appear here. Calls follow the shape of the dose curve; as a rule, active = well fitted inhibition curve with a large enough effect; inconclusive = small, poorly fitted or top-dose-only effect; inactive = no such curve, though single readings can be large or run the other way. This is one part of the list.
% is scaled to controls: 0 for no effect and ±100 for the full control effect; potency is read from the fitted curve at half-maximal effect.

A short description of this experiment: qHTS Assay to Find Inhibitors of Chronic Active B-Cell Receptor Signaling: Hit Validation in OCI-Ly3 Assay. The conditions noted are these: OCI-Ly3 IkB-luciferase reporter, Chroma-Glo luminescence, 4 h; series mostly up to 46.1 µM; activity change, negative = inhibition: at the top concentration. The method in brief:
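OCI-Ly3 cells in IMDM with 0.5% FBS get compound plus 80ng/ml doxycycline (dispensed solution), 4 hrs at 37C. Chroma-Glo read of green IkB-luc and red unfused luc; green/red ratio normalized to basal (0%) and 10 uM MG-132 (100%); concentration-response curves for each signal.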
In general terms: qHTS replaces the single test concentration by a dilution series.
Consider `COc1ccc(-c2nn(-c3ccccc3)cc2C(=O)NC(=S)NNC(=O)c2ccncc2)cc1`, for which the “activity change, negative = inhibition” value is inactive: -1.59%.
Regarding `O=C(/C=C/c1ccccc1)c1ccc(NC2=NCCCS2)cc1`, the “activity change, negative = inhibition” value was inactive: -4.98%.
On the same count and under the same terms, the value for `CC(=O)Nc1ccc(Oc2cc(C#N)c(C#N)cc2N2CCOCC2)cc1` was inactive: -0.185%; that for `COc1ccc(-c2[nH]ncc2/C=C(\C#N)C(=O)NC2CC2)cc1` was inactive: -0.218%; that for `COc1cccc(Nc2sc(C(=O)c3ccc(F)cc3)c(N)c2C(=O)NCc2ccc(C)cc2)c1` was inactive: -2.94%.
As to `COc1cc(/C=C/c2ccc3cccc(O)c3n2)cc(Br)c1OC`, the Potency was active: 10.3 µM.
With `C=CCOc1c(Cl)cc(C(=S)N2CCCC2)cc1OCC`, the “activity change, negative = inhibition” value is inactive: -1.03%.
On to `Cc1ccc(C(=O)Nc2nc(C)c(C(=O)Nc3ccc4c(c3)CCC4)s2)cc1`, for which the “activity change, negative = inhibition” value was inactive: -3.13%.
Turning to `COc1ccccc1C1CC(=O)Nc2cc3c(cc21)OCCO3` (configuration not stated), the “activity change, negative = inhibition” value is inactive: -3.86%.
Regarding `O=C(CSc1cccc[n+]1[O-])c1ccc(-c2ccccc2)cc1`, the “activity change, negative = inhibition” value is inactive: 0.0764%.
For `Cc1ccc(C#N)c(SCc2ccccc2F)n1`, the “activity change, negative = inhibition” value was inactive: -1.05%.
Same read-out and setting: under `COC(=O)c1[nH]c2ccccc2c1NC(=O)CN1CCN(C/C=C/c2ccccc2)CC1` stands inactive: -1.56%.
Same read-out and setting: under `Cc1csc(N/N=C/c2ccccn2)n1` stands inactive: 25%; under `CCC1=Nc2cc(C(=O)NCc3ccco3)ccc2Sc2ccccc21`, inactive: -2.12%; under `CC(=O)N1c2ccc(C)cc2C(c2ccccc2)CC1C` (configuration not stated), inactive: -2.03%.
Take `O=C(/C=C/c1ccccc1Cl)c1cccnc1`: the “activity change, negative = inhibition” value was inactive: -0.735%.
In the case of `COc1cc(/C=C\C(=O)OCn2nnc3ccccc3c2=O)cc(OC)c1OC`, the “activity change, negative = inhibition” value is inactive: -4.34%.
As to `CCOC(=O)C1=C(N)Oc2ccc3ccccc3c2C1c1ccc(O)c(OC)c1` (configuration not stated), the “activity change, negative = inhibition” value is inactive: -4.36%.
Regarding `CCC1=Nc2cc(C(=O)NCCCOC)ccc2Sc2ccccc21`, the “activity change, negative = inhibition” value is inactive: -2.48%.
As for `Cc1ccc(S(=O)(=O)N(C)C[C@@H]2Oc3ccc(NC(=O)CCC(F)(F)F)cc3CC(=O)N([C@@H](C)CO)C[C@@H]2C)cc1`, the “activity change, negative = inhibition” value is inactive: -2.69%.
With `CCOC(=O)c1cnc(Nc2nc3ccccc3o2)nc1CSC(=S)N1CCCCC1`, the “activity change, negative = inhibition” value is inactive: -1.31%.
In the case of `CCN(CC)c1ccc(Nc2cc3n(c(=O)n2)CCc2cc(OC)c(OC)cc2-3)cc1`, the “activity change, negative = inhibition” value is inactive: -2.64%.
On the same count and under the same terms, under `COc1ccc(CCn2c(N)cc(=O)[nH]c2=S)cc1OC` stands inactive: -0.287%.
On to `CCOC(=O)c1c(C=O)c(C)n(Cc2ccccc2)c1C`, for which the “activity change, negative = inhibition” value is inactive: -0.467%.
As for `Cc1ccc(C(=O)c2cc([N+](=O)[O-])ccc2N2CCOCC2)c(C)c1`, the “activity change, negative = inhibition” value was inactive: -3.69%.
For the compound `COCCCNC(=O)C[C@H]1C[C@H](C(=O)N2CCCCC2)[C@@]2(C)c3[nH]c4ccc(Cl)cc4c3CCN2C1=O`, the “activity change, negative = inhibition” value was inactive: -2.17%.
With `Cc1[nH]n(C(N)=S)c(=O)c1N=Nc1ccc([N+](=O)[O-])cc1Cl`, the “activity change, negative = inhibition” value is inactive: 1.77%.
Consider `CCOc1ccccc1NC(=O)N1CCC(N2CCN(Cc3ccccc3)C(=O)C2=O)CC1`, for which the “activity change, negative = inhibition” value was inactive: -0.966%.
Still for that read-out and setting: under `COc1cccc(/C=N/NC(=O)c2[nH]nc3c2CCc2ccccc2-3)c1O` stands inactive: -14%; under `COc1ccc(Nc2cc(C)nc(-n3nc(C)cc3C)n2)cc1`, inactive: -2.17%; under `CCCOc1ccc(Cn2ccnc2)cc1[N+](=O)[O-]`, inactive: -0.415%.
With `C=CCNC(=S)N/N=C/c1ccc(C(C)(C)C)cc1`, the “activity change, negative = inhibition” value is inactive: -3.06%.
For `Cc1ccc(NC(=S)NNC(C)(C)C)cc1`, the “activity change, negative = inhibition” value was inactive: -0.754%.
Turning to `COc1cc2c(cc1OC)C(c1cc(C)ccc1C)CC(=O)N2` (configuration not stated), the “activity change, negative = inhibition” value was inactive: -0.742%.
In the case of `N#CC(C(=S)Nc1ccccc1)c1nc2ccccc2[nH]1` (configuration not stated), the “activity change, negative = inhibition” value was inactive: -7.01%.
Still for that read-out and setting: the value for `CC1=Nc2cc(C(=O)NCCCOC(C)C)ccc2Sc2ccc(C)cc21` was inactive: -2.02%.
Turning to `COc1ccc(/C=N/NC(=O)c2[nH]c3ccc(Br)cc3c2-c2ccccc2)c(C(=O)O)c1OC`, the “activity change, negative = inhibition” value was inactive: -1.95%.
Consider `CCCCC(=O)O[C@]1(C(=O)CO)CC[C@H]2[C@@H]3CCC4=CC(=O)CC[C@]4(C)[C@H]3[C@@H](O)C[C@@]21C`, for which the “activity change, negative = inhibition” value is inactive: -1.97%.
`Cc1cccc(OCCCC(=O)NNC(=O)c2cccc(N(C)C)c2)c1`: the “activity change, negative = inhibition” value was inactive: -0.0947%.
For `O=C(Cc1ccc(-c2ccccc2)cc1)NCc1ccccc1`, the “activity change, negative = inhibition” value is inactive: -2.19%.
Consider `Cc1nc2c(C(F)(F)F)cccc2c2c1CCS2`, for which the “activity change, negative = inhibition” value is inactive: -1.14%.
Take `COc1ccc(/C=C/c2ccncc2)cc1OC`: the “activity change, negative = inhibition” value is inactive: 0.0427%.
The same measure, in the same setting: under `COc1cccc(/C=N/Nc2nc(Nc3ccccc3)nc(-n3nc(C)cc3C)n2)c1O` stands inactive: -14.3%.
On the same count and under the same terms, the value for `CC(C)(C)NNC(=S)Nc1cccc(F)c1` was inactive: 0.0382%; that for `COc1ccccc1NC(=O)COc1ccc(-c2nn(C)c(=O)c3ccccc23)cc1` was inactive: -2.69%.
For `Cc1ccc(-c2ccccc2NC(=O)CS(=O)CC(=O)Nc2ccc(C)c(Cl)c2)o1` (configuration not stated), the “activity change, negative = inhibition” value was inactive: -1.92%.
Still for that read-out and setting: the value for `Cc1ccc(-n2cc(CNCCc3ncc(C)[nH]3)c(-c3ccc(F)cc3)n2)cc1` was inactive: 0.502%.
On the same count and under the same terms, the value for `COc1ccc(/C(C)=N/Nc2nc3ccccc3nc2C)cc1OC` was inactive: -4.17%.
On the same count and under the same terms, under `O=C(COc1ccccc1-c1ccccc1)N/N=C/c1ccc2ccccc2c1` stands inactive: -1.67%; under `CCOc1ccccc1/C=N/Nc1nc2c(N)ncnc2n1[C@H]1O[C@@H](CO)[C@H](O)[C@@H]1O`, inactive: 0.035%.
On to `O=C(CN1CCCc2ccccc21)N/N=C/c1ccccc1O`, for which the “activity change, negative = inhibition” value was inactive: -0.607%.
Take `Cc1cc(C)c2nc(SCC(=O)N3CC(=O)Nc4ccccc43)c(C#N)cc2c1`: the “activity change, negative = inhibition” value is inactive: -4%.
